In all, about 33,000 sequences were measured (“E-score (-0.5 to 0.5)”: median about -0.011, highest 2% from about 0.28 on). The list shows a part of the results.
Biological target: T1, Gcr1 (UniProt P07261)
T1 sequence: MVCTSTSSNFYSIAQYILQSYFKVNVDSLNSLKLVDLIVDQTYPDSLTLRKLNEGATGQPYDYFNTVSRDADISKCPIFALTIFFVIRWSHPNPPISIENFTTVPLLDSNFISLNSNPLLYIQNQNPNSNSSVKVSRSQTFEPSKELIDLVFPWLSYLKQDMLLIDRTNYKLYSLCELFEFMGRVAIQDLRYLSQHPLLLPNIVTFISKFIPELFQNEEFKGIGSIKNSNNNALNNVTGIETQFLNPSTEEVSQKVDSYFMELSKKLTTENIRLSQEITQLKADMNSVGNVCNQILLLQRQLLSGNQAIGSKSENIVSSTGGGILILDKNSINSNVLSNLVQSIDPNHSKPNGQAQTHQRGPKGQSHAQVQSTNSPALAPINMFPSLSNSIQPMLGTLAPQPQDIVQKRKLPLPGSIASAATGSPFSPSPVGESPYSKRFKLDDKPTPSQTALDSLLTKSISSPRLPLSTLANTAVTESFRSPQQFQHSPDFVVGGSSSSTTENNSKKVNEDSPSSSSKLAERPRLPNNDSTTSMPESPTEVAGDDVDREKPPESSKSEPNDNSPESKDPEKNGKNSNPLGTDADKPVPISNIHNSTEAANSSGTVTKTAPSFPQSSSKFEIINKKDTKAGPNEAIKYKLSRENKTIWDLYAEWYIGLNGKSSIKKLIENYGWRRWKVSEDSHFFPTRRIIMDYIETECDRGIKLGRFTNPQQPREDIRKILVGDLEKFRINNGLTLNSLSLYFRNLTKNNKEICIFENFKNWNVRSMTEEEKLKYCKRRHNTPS
Assay: PBM E-score (8-mer binding enrichment) (E-score (-0.5 to 0.5)); higher = stronger / more preferred TF binding; most listed sequences are background and not binding sites
Settings: protein concentration: 100 nM; construct: GST-full length
How it was run: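 Detection of bound protein used fluorescent anti-GST, with scans normalised by masliner. The proteins were GST-tagged yeast transcription factors applied at about 100-200 nM to universal all-10-mer Agilent arrays made double-stranded by primer extension. Each ungapped eight-base word, pooled with its reverse complement, was scored with an E-score from the Universal PBM Analysis Suite.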

Sequence	PBM E-score
AGCTAAGG	-0.342
ACGCCTTG	-0.0123
AGTCTGAA	-0.131
AGTACGGA	0.0175
ACTCAGAC	-0.0163
AAAACAGT	0.00474
ACAGCCCG	-0.248
ATAGTCTC	-0.0618
AAAGCTTT	-0.163
AATCTCTG	0.0202
CCGGCTGC	0.314
CAATAAAA	0.104
AGAGAGAA	-0.169
AAAAGGCC	-0.304
CTGATGGA	-0.101
AAAAACGG	0.153
CCAATTAA	0.135
AGTGTTAA	-0.0187
ACTAACAG	0.0424
AACTCCGA	0.0285
GAGTCAGA	-0.0648
CTGTAGAA	0.144
AGAGGAAA	-0.0469
ACTGAGCC	0.0241
GATAGCAA	-0.0125

Sequence	PBM E-score
ATGCATTA	-0.0992
AGGACAAT	0.0166
ACACAGAG	-0.246
CCGTTATA	0.11
ATGATCTG	-0.132
AGGGACCT	-0.0783
ACAACTGC	0.0629
AAATACAT	0.138
GAAGTTAA	0.0459
CAAACCAC	-0.00581
ACATCAAT	0.114
AGGCTGAG	-0.177
CCAAAGTA	0.133
CCGGGAGC	0.157
CGCTGTGC	-0.0976
CAACATCC	0.0729
CGACAAGC	0.00356
ATAGCCAG	0.0137
GAAAAGGA	0.0614
ATCAATGC	-0.0961
AACATCCA	0.193
GGACAAAC	-0.0583
AAACCCAG	0.104
ACATCAAC	0.126
CCACCAAG	0.227

Sequence	PBM E-score
AATAACAC	0.153
GACCAAGC	-0.0512
ACGGGTCA	-0.303
ACCTCCAA	-0.0916
ATGGAAAA	0.0168
AAATTGAT	0.212
ATTTGTGA	0.0546
TCCTGCCA	0.119
GAGCTAAA	-0.125
CCTGATCG	-0.0404
ATCCCATC	-0.0212
AAACTAAT	0.036
GTTACAAC	0.00785
ATCTTCGG	-0.104
ACGTGCCT	-0.102
ATTTGGGA	0.301
AATCGAAC	-0.0628
ATGTCAAT	-0.0274
GTCCCCAC	0.198
GAGTGGTA	0.0824
AGCCTGCG	-0.318
CAGTTGTC	-0.0203
GTATCAGA	-0.0598
GGACTGCA	-0.13
CTTCGAAC	-0.114

Sequence	PBM E-score
GACTCACC	-0.256
GCCACTCA	0.0462
TATAGGAA	0.318
ACATCAGC	-0.183
CGGACCCC	-0.122
GACTAGAA	0.217
ATCGGCGG	0.108
CTTGGGTA	0.0295
ATATTAGG	0.139
AGCATGTC	-0.242
GGATAACA	-0.0742
ACGTTCAA	-0.0358
ATTGCAAT	-0.114
ATCGACAA	0.0447
AGTACCCC	0.0894
AGGATGGA	-0.0308
TAACGACA	0.0292
GTAGCTCA	0.208
CCCTAGAG	-0.0641
GCCTATCC	-0.0363
ATCAAAGA	-0.0208
GATTCGGC	-0.12
CCTGCGTC	-0.191
CAACGGGC	-0.0626
GCCAACGA	-0.191

Sequence	PBM E-score
AAATTTAG	0.148
AACAAACA	0.157
CCGGAGCG	0.0872
GACGGTCC	-0.285
ACAAGTTG	0.214
GATGTTCA	-0.12
CAACTTAG	0.207
AAACGGAG	-0.235
GATTGTAA	-0.0982
AAGCTATT	-0.0804
ACGACGAG	-0.113
CTGTTATA	0.00213
TCAGGGCA	-0.0108
TGCATCCA	0.182
ACTACGCT	-0.087
GCACACCC	-0.0656
CCGAAGTC	0.0182
CTACGCCA	-0.0727
ATGGGCGC	0.187
ACGGGTTG	-0.0981
GGTAAGCA	-0.00581
AGCACGCA	-0.18
AAACCCCT	-0.183
ACATGAGA	0.0532
ATTAGAAC	0.149

Sequence	PBM E-score
TCTGTTAA	0.0337
GACTAAGC	-0.126
CAGCTACA	0.121
GCCTTGCC	-0.267
CAATACGA	0.129
ACGGTCTG	-0.0534
GTGCCCAA	0.041
GAGTATAC	-0.0865
CTTTAAAA	-0.048
AATCTGAG	0.072
CGTAAGTC	-0.109
ACCATTCG	0.068
ATTGCAAA	0.0574
GGGAAAAC	-0.101
GACTGTCC	-0.247
CAAGCTTA	-0.263
GCCGGCCC	-0.151
CAATCAGG	0.0953
TATGACAA	0.00222
CGGTTAGC	-0.0704
CGTTAATA	0.171
ATTAAGTA	-0.0148
GGGACAAC	-0.0636
GCCGCCGA	0.0471
ATTCACGA	-0.0123

Sequence	PBM E-score
AGGGATAA	-0.0814
GACCCTGC	-0.0674
CGGTAGGA	0.0143
AGGCAAAG	-0.122
AATGGAGA	0.0304
ACTAGTCT	0.0634
ATTTGTTG	0.0123
TAAACATA	0.138
CCGGTCGA	-0.0987
AAACATAA	0.0996
ATAATCCA	0.0929
ATAGGGAG	-0.0215
GGGTACGA	0.0347
ATCTACAT	0.0423
CCCACTTC	0.276
ATATCCAG	0.156
AGGGCGTA	-0.00036
CGTGCCGA	-0.0978
ATCCTACG	-0.00941
TACAAGTA	0.123
GCACCGGC	-0.0966
AGGGCAAT	-0.141

Reference: the supplement of paper PMC3334620
